Source: PubChem BioAssay AID1745845 (National Center for Advancing Translational Sciences (NCATS), 2022)
Out of some 360,000 compounds screened, about 2,600 (0.72%) were called active. This list was built around the results that the source calls inconclusive (neither active nor inactive); the mix of calls is not that of the screen. Calls come from the whole dose curve; as a rule, active = well fitted inhibition curve with a large enough effect; inconclusive = small, poorly fitted or top-dose-only effect; inactive = no such curve, though single readings can be large or run the other way. A potency beside an inconclusive call is a rough fit, not a confirmed value.

assay: Primary qHTS for Inhibitors of ATXN expression; details: HEK-293 ATXN2-luciferase reporter, luminescence, 24 h; activity change, negative = inhibition: at 57 µM (top of the series); note: nearly all actives have a fitted effect of over 55% in size
Procedure, shortened: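 ATXN2-luciferase reporter cells (luciferase flanked by upstream and downstream ATXN2 gene portions) were treated 24 h at 37 °C with compounds at up to 57 uM. SteadyGlo luminescence gave expression; GF-AFC fluorescence gave viability.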
% is set by controls: 0 for no effect and ±100 for the full control effect; potency is the fitted concentration of half-maximal effect; tags give direction and shape of the fitted curve.

Row | Structure (SMILES) | activity change, negative = inhibition | Potency
1 | COc1cc(OC)cc(C(=O)NC(=S)N2CCCCC2c2cccnc2)c1 (configuration not stated) | inactive: -3.24% | 
2 | CCCCn1c(NC(=O)c2ccccc2)nc2ccccc21 | inactive: -10.1% | 
3 | O=C(Nc1ccccn1)c1ccc(-c2ccccc2)cc1 |  | inconclusive: 14.1 µM [inhibitor, single point]
4 | CCN(CC(O)CON=C1c2ccccc2-c2ccccc21)S(=O)(=O)c1ccc(C)cc1 (configuration not stated) |  | inconclusive: 31.6 µM [inhibitor, single point]
5 | O=C(NNc1ccccc1Cl)C(O)(c1cccc(C(F)(F)F)c1)c1cccc(C(F)(F)F)c1 |  | inconclusive: 28.2 µM [inhibitor, single point]
6 | CCOC(=O)c1ccc(N2C(=O)c3n[nH]c(-c4ccco4)c3C2c2ccc(C(=O)OC)cc2)cc1 (configuration not stated) |  | inconclusive: 28.2 µM [inhibitor, partial curve]
7 | CCN(CC)CCNC(=O)c1ccc(NC(=O)c2cn(-c3ccc(F)cc3)nc2-c2cccc(OC)c2)cc1 |  | inconclusive: 15.8 µM [inhibitor, partial curve, poor fit]
8 | Cc1ccc(C2C3=C(CC(C)(C)CC3=O)N=C3c4ccccc4C(=O)C32)cc1 (configuration not stated) |  | inconclusive: 39.8 µM [inhibitor, single point]
9 | Cc1cc(OCC(O)CNC(C)c2ccccc2)ccc1C(C)C (configuration not stated) | inactive: -13.3% | 
10 | COc1ccccc1-c1cc(NC=O)c2ncc(-c3ccc(S(C)(=O)=O)cc3)n2c1 |  | inconclusive: 31.6 µM [inhibitor, partial curve, poor fit]
11 | OCCCn1c(C2CCCN2c2nc(-c3ccc(F)cc3)cs2)nc2cc(C(F)(F)F)ccc21 (configuration not stated) |  | inconclusive: 31.6 µM [inhibitor, single point]
12 | Cc1cc(C)c(C)c(N=Nc2nc3ccccc3n2C)c1C |  | inconclusive: 17.8 µM [inhibitor, single point]
13 | Cc1ccc(/C=N/Nc2ccc3ccccc3n2)o1 |  | inconclusive: 37.7 µM [inhibitor, single point]
14 | CCc1c(C)c2ccc(O)c(CN3CCN(c4cc(Cl)ccc4C)CC3)c2oc1=O | inactive: 3.78% | 
15 | CC(C)CN(CC(C)C)C(=O)c1cccc(S(=O)(=O)N2CCc3ccccc32)c1 |  | inconclusive: 11.9 µM [inhibitor, partial curve, poor fit]
16 | COC(=O)COc1ccc(-c2nnc(Nc3ccc(O)cc3)c3ccccc23)cc1 |  | inconclusive: 35.5 µM [inhibitor, single point]
17 | OC(CNC1CCCCCC1)COc1cccc2ccccc12 (configuration not stated) |  | inconclusive: 10 µM [inhibitor, partial curve, poor fit]
18 | O=c1cc(CSc2nnc(-c3cccs3)n2Cc2ccccc2)nc2sc3ccccc3n12 | inactive: -17.9% | 
19 | CN(C)CC(CCC(CN(C)C)C(=O)c1ccccc1)C(=O)c1ccccc1 (configuration not stated) |  | active: 7.52 µM
20 | NC(CCc1ccccc1)c1csc(NC(=O)Nc2ccccc2Oc2ccccc2)n1 (configuration not stated) |  | inconclusive: 39.8 µM [inhibitor, single point]
21 | CC(=O)c1cccc(N(C(=O)Cn2nnc3ccccc32)C(C(=O)NCc2ccccc2)c2ccccn2)c1 (configuration not stated) |  | inconclusive: 4.47 µM [inhibitor, single point]
22 | O=[N+]([O-])c1nn(-c2ccccc2)n(O)c1=NC1CCN(Cc2ccccc2)CC1 |  | inconclusive: 21.2 µM [inhibitor, single point]
23 | Cc1ccc(N(CC(=O)N2CCN(c3cc(C)ccc3C)CC2)S(=O)(=O)c2c(C)nn(C)c2C)cc1 |  | inconclusive: 35.5 µM [inhibitor, single point]

Row | Structure (SMILES) | activity change, negative = inhibition | Potency
24 | C/C(=N\NC(N)=S)C12CC3CC(CC(C3)C1)C2 |  | inconclusive: 31.6 µM [inhibitor, single point]
25 | Cc1cccc(NC(=O)CNC(=O)CN2CCN(C)CC2)c1C | inactive: -14.3% | 
26 | CN(Cc1cn(-c2ccccc2)nc1-c1ccc(Cl)cc1)C(=O)CCC(=O)O |  | inconclusive: 1.58 µM [inhibitor, partial curve, poor fit]
27 | CCN(CC)CCOC(=O)c1ccc(Nc2c3c(nc4ccccc24)CCC3)cc1 |  | inconclusive: 25.1 µM [inhibitor, single point]
28 | CCN(CC)CCOC(=O)c1ccc(NC(=O)c2cc3c(s2)-c2ccccc2OC3)cc1 |  | inconclusive: 20 µM [inhibitor, partial curve, poor fit]
29 | CCC(C)Oc1ccc(/C=C/c2[nH]c(=O)[nH]c(=O)c2[N+](=O)[O-])cc1OC (configuration not stated) |  | inconclusive: 39.8 µM [inhibitor, single point]
30 | COc1ccc(CNC(=O)c2sc3nc4n(c(=O)c3c2C)CCCCC4)cc1 | inactive: -14.5% | 
31 | O=C(/C(=C\c1ccccc1)c1nc2ccccc2[nH]1)c1ccc(Cl)cc1 |  | inconclusive: 39.8 µM [inhibitor, single point]
32 | CC1CC(C)CN(S(=O)(=O)c2ccc(C(=O)N3CCN(c4ccccc4)CC3)cc2)C1 (configuration not stated) |  | inconclusive: 31.6 µM [inhibitor, partial curve, poor fit]
33 | Cc1cc(OCCN2CCC(Cc3ccccc3)CC2)ccc1[N+](=O)[O-] |  | inconclusive: 25.1 µM [inhibitor, partial curve, poor fit]
34 | O=C(Nc1ccc(Cl)c(Cl)c1)Nc1cc(S(=O)(=O)N2CCOCC2)ccc1N1CCCC1 |  | inconclusive: 39.8 µM [inhibitor, single point]
35 | Cc1c(C(=O)NCCO)[n+](=O)c2ccccc2n1[O-] | inactive: 9.01% | 
36 | COc1ccc(N2C(=O)CSC23C(=O)N(Cc2ccc(C)cc2)c2ccccc23)cc1Cl (configuration not stated) | inactive: -18.3% | 
37 | CCOc1ccc(NC(=O)CN(C)C(=O)c2cc3c(s2)CCC(C)C3)cc1OCC (configuration not stated) | inactive: -24.6% | 
38 | Cc1ccc(OCCCCN2CCc3ccccc3C2)cc1 | inactive: -4.48% | 
39 | Cc1no[n+]([O-])c1COc1cccc(/C=N/Nc2nncn2N)c1 |  | inconclusive: 20 µM [inhibitor, partial curve, poor fit]
40 | Cc1ccccc1C(=O)Nc1nnc(-c2ccco2)s1 |  | inconclusive: 12.6 µM [inhibitor, single point]
41 | O=C(NCC(c1ccc(F)cc1)N1CCOCC1)c1ccc([N+](=O)[O-])o1 (configuration not stated) | inactive: -12.7% | 
42 | CN(C)C1CCN(C(=O)c2ccc(NC(=O)Nc3nc(N4CCOCC4)nc(N4CCOCC4)n3)cc2)CC1 |  | inconclusive: 10.9 µM [inhibitor, partial curve]
43 | O=C(COC(=O)c1ccccc1F)NC1CCCC1 | inactive: -9.69% | 
44 | O=C(Nc1cccnc1)c1ccccc1NS(=O)(=O)c1ccc(F)cc1 |  | inconclusive: 23.8 µM [inhibitor, partial curve, poor fit]
45 | COc1ccc(Cl)cc1C(=O)Nc1ccc(NC(=O)C(C)C)cc1 | inactive: -18.1% | 
46 | CCOC(=O)C(C(=O)NCc1ccc(C)cc1)c1ncc(C(F)(F)F)cc1Cl (configuration not stated) |  | inconclusive: 20 µM [inhibitor, partial curve, poor fit]

Row | Structure (SMILES) | activity change, negative = inhibition | Potency
47 | N#Cc1ccc(Oc2ccc3c(c2)COB3O)cc1 | inactive: -23.2% | 
48 | Cc1ccc(CN2CCC(CNC(=O)Nc3ccc(C)c(C)c3)C2)cc1 (configuration not stated) |  | inconclusive: 15.8 µM [inhibitor, partial curve, poor fit]
49 | COc1ccc(S(=O)(=O)N2CCOCC2)cc1NC(=O)CN1CCC(Cc2ccccc2)CC1 |  | inconclusive: 39.8 µM [inhibitor, single point]
50 | Cc1cc(NC(=O)CCCS(=O)(=O)c2nc(-c3cccs3)cc(C(F)(F)F)n2)no1 |  | inconclusive: 39.8 µM [inhibitor, single point]
51 | COc1ccccc1Nc1nc(Cl)nc(Nc2ccccc2OC)n1 |  | inconclusive: 37.7 µM [inhibitor, single point]
52 | Cc1ccc(OCc2cc(C(=O)NC3CCc4ccccc43)no2)cn1 (configuration not stated) | inactive: -17.8% | 
53 | O=C(NCCO)c1cccc(-c2cnc3c(Nc4cccc(OC(F)(F)C(F)F)c4)nccn23)c1 |  | inconclusive: 31.6 µM [inhibitor, single point]
54 | CCOc1ccc(OCC)c(NC(=O)C2CCCN(S(=O)(=O)c3cc(Br)cc4c3N(C(=O)CC)CC4)C2)c1 (configuration not stated) | inactive: -4.01% | 
55 | O=C(Nc1ccc(Oc2cccnc2)cc1)C1CCN(Cc2ccc(F)cc2)CC1 | inactive: -20% | 
56 | CC(C)Cn1c(N)c(C(=O)COC(=O)c2ccc([N+](=O)[O-])o2)c(=O)n(C)c1=O |  | inconclusive: 5.97 µM [inhibitor, partial curve, poor fit]
57 | CCCN(CCC)c1nc(-c2ccccn2)nc2ccccc12 | inconclusive: -58.9% [inhibitor] | 
58 | COc1ccc(C(=O)CSc2nnc(Cn3cnc4ccccc43)o2)cc1 | inactive: -25.2% | 
59 | Cc1ccc(S(=O)(=O)NC(CC(C)C)C(=O)N2CCN(C/C=C/c3ccccc3)CC2)cc1 (configuration not stated) | inactive: -17% | 
60 | COc1ccc(-n2c(-c3ccccc3)c[n+]3c2CCC3)cc1 |  | inconclusive: 8.44 µM [inhibitor, partial curve, poor fit]
61 | COc1ccc(-c2noc(CCC(=O)O)n2)cc1 | inactive: -8.37% | 
62 | O=C1C=C(C#Cc2ccc(Oc3ccccc3)cc2)C[C@@H](c2ccc(F)cc2)C1 |  | inconclusive: 31.6 µM [inhibitor, single point]
63 | Cc1cccc2c1-c1sc(C(=O)NCCCN3CCN(c4ccccc4F)CC3)cc1CO2 | inactive: -37.3% | 
64 | Cc1cc(C)nc(N/N=C/c2c(CO)cnc(C)c2O)n1 |  | inconclusive: 12.6 µM [inhibitor, partial curve, poor fit]
65 | CCOC(=O)c1c(-c2ccccc2)oc2ccc(OCC(=O)NN)cc12 |  | inconclusive: 35.5 µM [inhibitor, partial curve, poor fit]
66 | NC(=O)c1ccccc1NC(=O)CS(=O)(=O)Cc1ccccc1 | inactive: -25.5% | 
67 | CCN(CC)S(=O)(=O)c1ccc(C)c(NC(=O)CSc2ncc(C(F)(F)F)cc2Cl)c1 |  | inconclusive: 39.8 µM [inhibitor, single point]
